# The other results are listed elsewhere or left out. One pool of 16,384 single-stranded DNAs met each Rep nickase domain in vitro (1 h at 37 °C, 3 µM enzyme); the outer parts of the 90-letter strands are left off. The score is log2 (uncut reads / reads without enzyme); more negative means more cut, near 0 not cut, and no call is made. Shares of all reads are compared; where an enzyme cuts many sequences, the uncut ones exceed 0.
# Test system: T1, Rep nickase domain of Muscovy duck circovirus
# T1 sequence (protein, residues 1-111, tag omitted): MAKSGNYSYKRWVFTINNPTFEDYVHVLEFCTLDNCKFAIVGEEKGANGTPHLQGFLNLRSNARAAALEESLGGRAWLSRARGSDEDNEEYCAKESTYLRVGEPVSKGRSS
# Assay: uncleaved DNA left, log2 of reads against the no-enzyme library (log2 ratio); higher = less cleavage (more negative = more Rep cleavage of the k-mer); sequences stand for … in CTCGTCCG…ACCGGAGA
# Protocol: (§1)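 A pool of 90-nt single-stranded DNAs with seven random bases just before the constant AC of the nick site (name = the seven bases) was cut by 3 µM recombinant His6-SUMO-tagged Rep nickase domain (300 nM DNA, 50 mM HEPES pH 8.0, 50 mM NaCl, 1 mM MnCl2, 1 h, 37 °C, three replicates). Uncut DNA was amplified and sequenced.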
row,Sequence,uncleaved DNA left (log2)
1,GGAGACT,0.0328
2,GAGGCTG,0.0787
3,ACGTTCC,0.0507
4,TCGGGGC,-0.00829
5,GACCGGG,0.125
6,GTTGAAC,-0.00175
7,GATGATT,0.0786
8,CGTGATG,0.24
9,GCCATGC,0.141
10,ACAATGT,0.0122
11,TGTCTAA,-0.0819
12,CACTAGT,-3.08
13,GGAGCCA,0.149
14,AGTGCCC,-0.0411
15,AAGATGT,-0.0553
16,TTGACCA,0.0195
17,TGAGCTG,0.0265
18,ATCTCAA,-0.0463
19,GGTTCCG,0.0398
20,GACAAAT,-0.00389

row,Sequence,uncleaved DNA left (log2)
1,ATACCTA,0.0387
2,AAGACCC,0.116
3,AGATATT,-3.77
4,TTATCTC,-0.258
5,CTGTGTT,-2.85
6,ATGTACG,0.12
7,CCTAAAC,0.0494
8,ACGCACC,-0.029
9,AATAACC,-0.11
10,TAATTAT,-3.58
11,GTACTCC,-0.0861
12,GGGCTGA,0.153
13,TCGTGGC,-0.0668
14,ACGAGGT,0.00995
15,ATTGCTC,0.0719
16,CCCCATC,-0.145
17,GAGAATC,0.0568
18,ATGTGCA,0.0951
19,TGGAGTC,0.0515
20,CATGTGT,0.0565

# Test system: T2, Rep nickase domain of banana bunchy top virus
# T2 sequence (protein, residues 1-94, tag omitted): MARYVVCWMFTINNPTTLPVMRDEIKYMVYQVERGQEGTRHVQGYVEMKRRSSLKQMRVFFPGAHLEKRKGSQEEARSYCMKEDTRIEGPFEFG
# Assay: as above
# Protocol: as §1
row,Sequence,uncleaved DNA left (log2)
1,GGAGACT,0.209
2,GAGGCTG,-0.0162
3,ACGTTCC,0.0287
4,TCGGGGC,0.0188
5,GACCGGG,-0.119
6,GTTGAAC,0.105
7,GATGATT,-0.0557
8,CGTGATG,0.0747
9,GCCATGC,0.102
10,ACAATGT,-0.0833
11,TGTCTAA,-0.103
12,CACTAGT,-3.24
13,GGAGCCA,0.0542
14,AGTGCCC,0.0449
15,AAGATGT,-0.0292
16,TTGACCA,0.0689
17,TGAGCTG,-0.0331
18,ATCTCAA,-0.0226
19,GGTTCCG,-0.00564
20,GACAAAT,0.083

row,Sequence,uncleaved DNA left (log2)
1,ATACCTA,0.041
2,AAGACCC,0.126
3,AGATATT,-1.07
4,TTATCTC,0.0465
5,CTGTGTT,-1.94
6,ATGTACG,-0.00712
7,CCTAAAC,0.0618
8,ACGCACC,0.0127
9,AATAACC,-0.0448
10,TAATTAT,-0.677
11,GTACTCC,-0.00674
12,GGGCTGA,0.212
13,TCGTGGC,-0.162
14,ACGAGGT,-0.0701
15,ATTGCTC,-0.0337
16,CCCCATC,-0.206
17,GAGAATC,0.0214
18,ATGTGCA,0.0272
19,TGGAGTC,0.158
20,CATGTGT,-0.109

# Test system: T3, Rep nickase domain of cabbage leaf curl virus
# T3 sequence (protein, residues 1-116, tag omitted): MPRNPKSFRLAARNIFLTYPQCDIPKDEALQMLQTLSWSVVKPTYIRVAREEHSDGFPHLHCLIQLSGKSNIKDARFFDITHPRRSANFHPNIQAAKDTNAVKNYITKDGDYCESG
# Assay: as above
# Protocol: as §1
row,Sequence,uncleaved DNA left (log2)
1,GGAGACT,0.88
2,GAGGCTG,0.179
3,ACGTTCC,0.0549
4,TCGGGGC,0.735
5,GACCGGG,0.612
6,GTTGAAC,0.307
7,GATGATT,0.197
8,CGTGATG,0.0363
9,GCCATGC,-0.498
10,ACAATGT,-0.255
11,TGTCTAA,0.157
12,CACTAGT,-0.618
13,GGAGCCA,0.704
14,AGTGCCC,0.228
15,AAGATGT,0.13
16,TTGACCA,0.172
17,TGAGCTG,0.414
18,ATCTCAA,-0.116
19,GGTTCCG,-0.123
20,GACAAAT,0.447

row,Sequence,uncleaved DNA left (log2)
1,ATACCTA,-0.0913
2,AAGACCC,0.632
3,AGATATT,-2.73
4,TTATCTC,-0.498
5,CTGTGTT,-1.17
6,ATGTACG,-0.742
7,CCTAAAC,0.0978
8,ACGCACC,-0.222
9,AATAACC,-0.598
10,TAATTAT,-4.6
11,GTACTCC,0.199
12,GGGCTGA,0.851
13,TCGTGGC,-0.204
14,ACGAGGT,0.0909
15,ATTGCTC,-0.5
16,CCCCATC,-0.112
17,GAGAATC,0.368
18,ATGTGCA,-0.478
19,TGGAGTC,0.398
20,CATGTGT,-0.687

# Reference: the supplement of paper PMC7826260
